From PMC7819943, “Rice protein-binding microarrays: a tool to detect cis-acting elements near promoter regions in rice”
The list shows a part of the results.

These sequences were tested against T1, OsWOX13 (Oryza sativa, UniProt Q5QMM3 1-267) (assay: protein-binding microarray (RPBM); PBS, 2% BSA, 51.3 ng/ul salmon testes DNA, 50 uM zinc acetate, 200 nM TF, 25 C, 1 h; high values mean tight binding). Conditions: protein: recombinant; tags: N-terminal polyhistidine and DsRed monomer fusion (pET32a); label: CyDye5-dUTP incorporated in the synthesized complementary strand; 3' TTTTT single-stranded linker to array surface; dsDNA, one strand shown.
T1 sequence: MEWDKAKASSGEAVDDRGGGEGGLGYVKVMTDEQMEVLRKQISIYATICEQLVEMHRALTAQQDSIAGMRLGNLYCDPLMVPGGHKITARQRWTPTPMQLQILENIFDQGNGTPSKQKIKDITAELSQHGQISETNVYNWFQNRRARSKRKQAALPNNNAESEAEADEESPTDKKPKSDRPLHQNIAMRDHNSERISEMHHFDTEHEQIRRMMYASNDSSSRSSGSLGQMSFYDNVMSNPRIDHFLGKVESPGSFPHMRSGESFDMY
How it was run: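 A custom Agilent array was converted to double-stranded form by primer extension with Cy5-dUTP and blocked with 2% BSA. Protein at 200 nM in PBS with 2% BSA, salmon testes DNA and 50 µM zinc acetate was applied for 1 h at 25 °C, followed by washing. The proteins were polyhistidine–DsRed N-terminal fusions of transcription factors, expressed in E. coli BL21-CodonPlus and Ni–NTA-purified. The binding signal is per-feature fluorescence intensity (arbitrary units) from an Axon 4000B scanner.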
With “ATTTGATTCGCTTAATGTAAAGAAGTTTGATGGTAAGCTCCGGAGTCACCTAGTGCAG” the binding signal was 4390 fluorescence intensity (a.u.). In the case of “AGAAATATATCGATCAATCAAATTTTGGCATGTATGTGAGCGGAGTCACCTAGTGCAG”, the binding signal was 10600 fluorescence intensity (a.u.). “ACCAAATTAAAATGTACCCCTCTTCTTCCTACAAGTAGTACGGAGTCACCTAGTGCAG” was tested, and the binding signal was 7140 fluorescence intensity (a.u.). In the case of “GCTAATAACGGATTAATTAGACTTAATATATTCGTCTTTTCGGAGTCACCTAGTGCAG”, the binding signal was 16100 fluorescence intensity (a.u.). In the case of “GTTGATTAATATATAAGGTAGTTATGGTTATATCCGAACTCGGAGTCACCTAGTGCAG”, the binding signal was 29100 fluorescence intensity (a.u.). With “ATTAATTAAAGCTAATTAAACGATGTTGTTTATTAGGCTTCGGAGTCACCTAGTGCAG” the binding signal was 58700 fluorescence intensity (a.u.). “ACCCTTTAATTTATATTCATTGTAATCTAACGGTGTAGCTCGGAGTCACCTAGTGCAG” was tested, and the binding signal was 29200 fluorescence intensity (a.u.). For “TTAGATTGAAATTTTATATAGCCATAGACAACACGATTATCGGAGTCACCTAGTGCAG”, the binding signal was 27800 fluorescence intensity (a.u.). With “TCCTTTTACAATCCAGTTGCAATCATGTACAAGTTGCAGTCGGAGTCACCTAGTGCAG” the binding signal was 3560 fluorescence intensity (a.u.). For “GATGGATTGTTCACTGATTTCACTGGATCCCTGCACCGTTCGGAGTCACCTAGTGCAG”, the binding signal was 6650 fluorescence intensity (a.u.). For “CGTCGATTAATTTCCCTGGTAAATACGAAATGTTCATGGTCGGAGTCACCTAGTGCAG”, the binding signal was 18700 fluorescence intensity (a.u.). With “TAGGAATCAATCATATTATTCATGTTCATTAAAATTTAAGCGGAGTCACCTAGTGCAG” the binding signal was 5000 fluorescence intensity (a.u.). For “ATATTAACGTATAATTAATTTAAGTTTTAATTATTATAAACGGAGTCACCTAGTGCAG”, the binding signal was 27800 fluorescence intensity (a.u.). “GTCGTTAATTTTGACGGTTTACCTGCTGCATTCCTTCTGTCGGAGTCACCTAGTGCAG” was tested, and the binding signal was 15600 fluorescence intensity (a.u.). “GAAATAATGAACATAGATTTACTGTATTGGCGCCATTAGACGGAGTCACCTAGTGCAG” was tested, and the binding signal was 5720 fluorescence intensity (a.u.). With “CCATCACTAAATTTGTTGTCGTCGAAATTGCAGGCCATATCGGAGTCACCTAGTGCAG” the binding signal was 7090 fluorescence intensity (a.u.). For “ATTCATGAATATATGAAACCTGATTGCAAATGTGCAAATCCGGAGTCACCTAGTGCAG”, the binding signal was 4970 fluorescence intensity (a.u.). For “TAGAATTAGCAAAATTTAACAGAATAGCATTGGTAAGAACCGGAGTCACCTAGTGCAG”, the binding signal was 5640 fluorescence intensity (a.u.). “TTTCAATATGATCAAAGATTGGAACTGTGGCTTGCCTTGTCGGAGTCACCTAGTGCAG” was tested, and the binding signal was 5900 fluorescence intensity (a.u.). “AAGAAAATAAGGGGATTGGGGATGACATGTGGGGCCCACGCGGAGTCACCTAGTGCAG” was tested, and the binding signal was 3930 fluorescence intensity (a.u.). For “TATGATTGGCATGGCCTGAATGGATGGATGAATTTTGGATCGGAGTCACCTAGTGCAG”, the binding signal was 58500 fluorescence intensity (a.u.). For “AACATATCACTGAGTGAATTAGTAGAGCATAATCAGATAGCGGAGTCACCTAGTGCAG”, the binding signal was 3570 fluorescence intensity (a.u.). With “GGTAACTAAATAAATGGTCTATGATATACTGTGGGAAACACGGAGTCACCTAGTGCAG” the binding signal was 7060 fluorescence intensity (a.u.). “ACTATCAATTCCATCATCTAAACTCTTGAACAAGCCGTCACGGAGTCACCTAGTGCAG” was tested, and the binding signal was 7450 fluorescence intensity (a.u.). In the case of “AGTAACTAAATTATTACAAAACTATAAGTTTTAGAACCAACGGAGTCACCTAGTGCAG”, the binding signal was 12200 fluorescence intensity (a.u.). “ATAATTGAAAACAATGCCACTATGTGTGTCTCGCTGGCTTCGGAGTCACCTAGTGCAG” was tested, and the binding signal was 27500 fluorescence intensity (a.u.). In the case of “GCTTGATTCATTAATTCATATGTGTCGTGTACTACTAATCCGGAGTCACCTAGTGCAG”, the binding signal was 7110 fluorescence intensity (a.u.). With “AATAATTACCAGTACTAGCCCTACACTTCCACTGGCGATCCGGAGTCACCTAGTGCAG” the binding signal was 15200 fluorescence intensity (a.u.). With “TGAATAGACTATTAGATTAGCTATAGATGATTTAGAGCCACGGAGTCACCTAGTGCAG” the binding signal was 16400 fluorescence intensity (a.u.). “GTCTTAATTATAGGGTTAGTTGAGGCCTCAATTGCAAGCTCGGAGTCACCTAGTGCAG” was tested, and the binding signal was 19600 fluorescence intensity (a.u.). In the case of “AAGTTAGAAACTGTAATTAATTTCGTCGTTGCAACGGTCGCGGAGTCACCTAGTGCAG”, the binding signal was 8290 fluorescence intensity (a.u.). For “TTTTGATAATTGATATGTGCAAACTTAGGGCTGGTCGCGTCGGAGTCACCTAGTGCAG”, the binding signal was 31800 fluorescence intensity (a.u.). For “GTGAGATTATTGATGCCGAGTTATCTGCGAATTTTCATGGCGGAGTCACCTAGTGCAG”, the binding signal was 10500 fluorescence intensity (a.u.). “GCAATCAATCAATCAATCATATATCCATATCAAATTAAGCCGGAGTCACCTAGTGCAG” was tested, and the binding signal was 61800 fluorescence intensity (a.u.). For “GTTGTTGATGATGATTCTAGCGTTTCAATCTGTTGTGGTGCGGAGTCACCTAGTGCAG”, the binding signal was 5260 fluorescence intensity (a.u.). For “CATAAATTGGACTATTTTCGAATTTAATGTACGACCTCCCCGGAGTCACCTAGTGCAG”, the binding signal was 22900 fluorescence intensity (a.u.). For “TAGCCTAATTGCGCAATTAGCCACCACTAATCACGCAGCGCGGAGTCACCTAGTGCAG”, the binding signal was 32300 fluorescence intensity (a.u.). With “ATTTTATTTATTATAATTAAATCTTTATAAGAAGATCTTACGGAGTCACCTAGTGCAG” the binding signal was 4750 fluorescence intensity (a.u.). With “GGAATTGATCATCAATTGAGGGGTTCTGACGGCTAGAATCCGGAGTCACCTAGTGCAG” the binding signal was 20700 fluorescence intensity (a.u.). “TCCTCATCCATCCATCATCCATCTCATCATCAGCAACCAACGGAGTCACCTAGTGCAG” was tested, and the binding signal was 3450 fluorescence intensity (a.u.). “CCACCTCCTACCCAATCATGTACACAAAACTTAACTAGGACGGAGTCACCTAGTGCAG” was tested, and the binding signal was 4860 fluorescence intensity (a.u.). “CTTACAATTAACACTACTGTCTATGTCTCAATTCATACTACGGAGTCACCTAGTGCAG” was tested, and the binding signal was 3260 fluorescence intensity (a.u.).
